Measured values: PMC8998556
No constants are given. Whether binding was seen depends on the method and setting. For some assays here: In cells and extracts the contact can be indirect. Some results given as binding are weak or reduced against the parent protein; the word gives no strength. Where a sequence is shown, tags or fusion partners need not be part of it.

Experiments:
[1] = target: T1, AtHYL1N (N-terminal fragment of AtHYL1, 1-170 a.a.), yeast two-hybrid fusion (Arabidopsis thaliana) (UniProt O04492); assay: two-hybrid; yeast two-hybrid with pGADT7 (AD) and pGBKT7 (BD) fusions; yeast grown on respective medium at 28 °C for 3 days
T1 sequence: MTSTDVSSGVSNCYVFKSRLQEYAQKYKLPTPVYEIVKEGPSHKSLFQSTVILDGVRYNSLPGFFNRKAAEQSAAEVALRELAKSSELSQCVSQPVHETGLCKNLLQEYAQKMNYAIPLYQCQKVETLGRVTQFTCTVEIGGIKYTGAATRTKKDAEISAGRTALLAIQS

[2] = target: T2, AtHYL1C (C-terminal fragment of AtHYL1, 171-419 a.a.), yeast two-hybrid fusion (Arabidopsis thaliana) (UniProt O04492); assay: as above
T2 sequence: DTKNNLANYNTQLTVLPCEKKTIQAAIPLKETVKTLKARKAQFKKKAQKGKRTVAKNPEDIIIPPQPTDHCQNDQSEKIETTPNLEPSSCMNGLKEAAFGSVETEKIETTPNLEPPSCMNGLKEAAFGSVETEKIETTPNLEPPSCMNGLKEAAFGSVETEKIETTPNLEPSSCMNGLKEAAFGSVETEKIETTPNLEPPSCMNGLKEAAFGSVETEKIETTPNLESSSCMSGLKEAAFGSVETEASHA

[3] = target: T3, AtHYL1FL (hyponastic leaves 1, full length), yeast two-hybrid fusion (Arabidopsis thaliana) (UniProt O04492); assay: as above
T3 sequence: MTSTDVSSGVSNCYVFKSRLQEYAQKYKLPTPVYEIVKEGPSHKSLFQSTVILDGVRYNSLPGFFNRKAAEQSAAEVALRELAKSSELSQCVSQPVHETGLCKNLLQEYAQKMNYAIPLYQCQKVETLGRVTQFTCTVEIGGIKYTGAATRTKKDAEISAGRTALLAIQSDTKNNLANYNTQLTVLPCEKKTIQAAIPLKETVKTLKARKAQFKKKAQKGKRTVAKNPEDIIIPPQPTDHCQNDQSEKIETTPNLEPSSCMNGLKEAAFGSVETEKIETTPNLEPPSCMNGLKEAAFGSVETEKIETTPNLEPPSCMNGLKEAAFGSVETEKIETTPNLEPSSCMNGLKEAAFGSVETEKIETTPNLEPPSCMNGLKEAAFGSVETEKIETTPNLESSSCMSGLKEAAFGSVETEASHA

[4] = target: T4, AtHYL1, BiFC fusion used with AtMPK3 (Arabidopsis thaliana) (UniProt O04492); assay: split reporter; BiFC with halves of YFP; transient co-expression by agro-infiltration in N. benthamiana (tobacco) leaves; confocal microscopy
T4 sequence: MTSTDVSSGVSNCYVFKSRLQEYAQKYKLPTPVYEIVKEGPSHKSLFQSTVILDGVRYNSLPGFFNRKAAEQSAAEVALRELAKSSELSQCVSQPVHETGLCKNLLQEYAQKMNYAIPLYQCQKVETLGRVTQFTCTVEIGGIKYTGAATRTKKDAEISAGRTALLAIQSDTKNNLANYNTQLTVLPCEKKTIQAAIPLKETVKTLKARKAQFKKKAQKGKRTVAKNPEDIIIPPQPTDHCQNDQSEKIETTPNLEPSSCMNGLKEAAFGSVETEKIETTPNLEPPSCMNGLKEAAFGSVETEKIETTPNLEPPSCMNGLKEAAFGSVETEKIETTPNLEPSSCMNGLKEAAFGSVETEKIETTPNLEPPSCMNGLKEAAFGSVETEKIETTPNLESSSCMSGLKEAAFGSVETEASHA

[5] = target: T5, AtHYL1-nYFP / AtHYL1-cYFP (full-length AtHYL1 with a YFP half at the C-terminal) (Arabidopsis thaliana), O04492; assay: as above; conditions: remark: other sources report otherwise
T5 chain: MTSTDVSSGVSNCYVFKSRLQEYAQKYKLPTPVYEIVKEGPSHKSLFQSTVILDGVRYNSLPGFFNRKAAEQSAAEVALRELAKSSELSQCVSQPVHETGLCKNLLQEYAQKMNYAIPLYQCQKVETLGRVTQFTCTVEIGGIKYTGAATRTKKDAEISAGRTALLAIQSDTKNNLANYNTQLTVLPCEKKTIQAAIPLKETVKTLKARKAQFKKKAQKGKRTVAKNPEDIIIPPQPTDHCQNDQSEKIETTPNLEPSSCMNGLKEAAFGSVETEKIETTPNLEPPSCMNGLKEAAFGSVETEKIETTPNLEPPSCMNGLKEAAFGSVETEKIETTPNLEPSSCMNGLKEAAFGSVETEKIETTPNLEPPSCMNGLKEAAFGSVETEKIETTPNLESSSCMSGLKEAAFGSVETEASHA

[6] = target: T6, nYFP-AtHYL1 / cYFP-AtHYL1 (full-length AtHYL1 with a YFP half at the N-terminal) (Arabidopsis thaliana), O04492; assay: as above; conditions: remark: other sources report otherwise
T6 chain: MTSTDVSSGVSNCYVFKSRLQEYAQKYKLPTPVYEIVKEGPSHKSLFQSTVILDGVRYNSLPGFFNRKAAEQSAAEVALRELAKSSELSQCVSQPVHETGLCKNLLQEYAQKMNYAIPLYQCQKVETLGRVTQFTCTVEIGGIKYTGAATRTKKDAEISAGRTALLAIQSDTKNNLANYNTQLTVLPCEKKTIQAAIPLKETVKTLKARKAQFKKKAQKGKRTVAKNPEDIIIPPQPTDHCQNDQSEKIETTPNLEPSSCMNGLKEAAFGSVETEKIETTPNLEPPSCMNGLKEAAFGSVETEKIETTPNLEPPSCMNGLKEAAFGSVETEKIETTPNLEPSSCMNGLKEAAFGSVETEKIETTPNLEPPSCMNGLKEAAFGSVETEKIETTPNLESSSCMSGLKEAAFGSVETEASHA

B1: AtMPK3, yeast two-hybrid fusion (enzyme, UniProt Q39023 1-370)
chain: MNTGGGQYTDFPAVETHGGQFISYDIFGSLFEITSKYRPPIIPIGRGAYGIVCSVLDTETNELVAMKKIANAFDNHMDAKRTLREIKLLRHLDHENIIAIRDVVPPPLRRQFSDVYISTELMDTDLHQIIRSNQSLSEEHCQYFLYQLLRGLKYIHSANIIHRDLKPSNLLLNANCDLKICDFGLARPTSENDFMTEYVVTRWYRAPELLLNSSDYTAAIDVWSVGCIFMELMNRKPLFPGKDHVHQMRLLTELLGTPTESDLGFTHNEDAKRYIRQLPNFPRQPLAKLFSHVNPMAIDLVDRMLTFDPNRRITVEQALNHQYLAKLHDPNDEPICQKPFSFEFEQQPLDEEQIKEMIYQEAIALNPTYG
binding [1]: binds | binding [2]: binds | binding [3]: binds

B2: AtSE (serrate), yeast two-hybrid fusion (protein, UniProt Q9ZVD0 1-720)
chain: MADVNLPPSDSVDNRLPEKSTSSSPPPPPPSSSLPQQEQEQDQQQLPLRRERDSRERRDERDIERPPPNRRERDRSPLPPPRRDYKRRPSLSPPPPYRDRRHSPPQRRSPPQKRYRRDDNGYDGRRGSPRGGYGPPDRRFGYDHGGGYDREMGGRPGYGDERPHGRFMGRYQDWEGGRGGYGDASNSGNPQRDGLMSYKQFIQELEDDILPSEAERRYQEYKSEYITTQKRAFFNTHKEEDWLKNKYHPTNLLSVIERRNDLAQKVAKDFLLDLQSGTLDLGPAVTALNKSGRTSEPNSEDEAAGVGKRKRHGMGGAKENELLSAAPKAPSFTSDPKRILTDVEQTQALVRKLDSEKKIEENVLQGSETEKSGREKLHSGSTGPVVIIRGLTSVKGLEGVELLDTLVTYLWRVHGLDYYGKVETNEAKGLRHVRAEGKVSDAKGDENESKFDSHWQERLKGQDPLEVMAAKEKIDAAATEALDPHVRKIRDEKYGWKYGCGAKGCTKLFHAAEFVYKHLKLKHTELVTELTTKVREELYFQNYMNDPNAPGGQPATQQSGPRDRPIRRKPSMENRLRDDRGGRRERDGRANGNDRNDRSEDQQRGDNDGGNPGEVGYDAFGGQGGVHVPPFLSDINPPPMLMPVPGAGPLGPFVPAPPEVAMQMFRDPSGPNPPFEGSGRGGPAPFLLSPAFRQDPRRLRSYQDLDAPEEEVTVIDYRSL
binding [1]: binds | binding [2]: no binding

B3: AtMPK3, BiFC fusion (enzyme, UniProt Q39023 1-370)
chain: MNTGGGQYTDFPAVETHGGQFISYDIFGSLFEITSKYRPPIIPIGRGAYGIVCSVLDTETNELVAMKKIANAFDNHMDAKRTLREIKLLRHLDHENIIAIRDVVPPPLRRQFSDVYISTELMDTDLHQIIRSNQSLSEEHCQYFLYQLLRGLKYIHSANIIHRDLKPSNLLLNANCDLKICDFGLARPTSENDFMTEYVVTRWYRAPELLLNSSDYTAAIDVWSVGCIFMELMNRKPLFPGKDHVHQMRLLTELLGTPTESDLGFTHNEDAKRYIRQLPNFPRQPLAKLFSHVNPMAIDLVDRMLTFDPNRRITVEQALNHQYLAKLHDPNDEPICQKPFSFEFEQQPLDEEQIKEMIYQEAIALNPTYG
binding [4]: binds

B4: AtHYL1-nYFP / AtHYL1-cYFP (full-length AtHYL1 with a YFP half at the C-terminal), O04492 1-419 (protein)
chain: MTSTDVSSGVSNCYVFKSRLQEYAQKYKLPTPVYEIVKEGPSHKSLFQSTVILDGVRYNSLPGFFNRKAAEQSAAEVALRELAKSSELSQCVSQPVHETGLCKNLLQEYAQKMNYAIPLYQCQKVETLGRVTQFTCTVEIGGIKYTGAATRTKKDAEISAGRTALLAIQSDTKNNLANYNTQLTVLPCEKKTIQAAIPLKETVKTLKARKAQFKKKAQKGKRTVAKNPEDIIIPPQPTDHCQNDQSEKIETTPNLEPSSCMNGLKEAAFGSVETEKIETTPNLEPPSCMNGLKEAAFGSVETEKIETTPNLEPPSCMNGLKEAAFGSVETEKIETTPNLEPSSCMNGLKEAAFGSVETEKIETTPNLEPPSCMNGLKEAAFGSVETEKIETTPNLESSSCMSGLKEAAFGSVETEASHA
binding [5]: binds

B5: nYFP-AtHYL1 / cYFP-AtHYL1 (full-length AtHYL1 with a YFP half at the N-terminal), O04492 1-419 (protein)
chain: MTSTDVSSGVSNCYVFKSRLQEYAQKYKLPTPVYEIVKEGPSHKSLFQSTVILDGVRYNSLPGFFNRKAAEQSAAEVALRELAKSSELSQCVSQPVHETGLCKNLLQEYAQKMNYAIPLYQCQKVETLGRVTQFTCTVEIGGIKYTGAATRTKKDAEISAGRTALLAIQSDTKNNLANYNTQLTVLPCEKKTIQAAIPLKETVKTLKARKAQFKKKAQKGKRTVAKNPEDIIIPPQPTDHCQNDQSEKIETTPNLEPSSCMNGLKEAAFGSVETEKIETTPNLEPPSCMNGLKEAAFGSVETEKIETTPNLEPPSCMNGLKEAAFGSVETEKIETTPNLEPSSCMNGLKEAAFGSVETEKIETTPNLEPPSCMNGLKEAAFGSVETEKIETTPNLESSSCMSGLKEAAFGSVETEASHA
binding [6]: binds
